# Screen size: about 110,000 compounds; about 230 (0.21%) showed an effect of 50% or more. This is one part of the list.
# Target: DPAP1 (Plasmodium falciparum, UniProt Q8IIJ9)
# Experiment: primary screen, percent inhibition; read by cleavage of a fluorogenic dipeptide substrate; higher = more effect of the substance
# Parameters: species or system P. falciparum D10 trophozoite lysates; single well
# 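Note: 30 min substrate incubation versus DMSO and 10 µM JCP410 controls.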
# Sequence of DPAP1 (Q8IIJ9 whole entry, looked up): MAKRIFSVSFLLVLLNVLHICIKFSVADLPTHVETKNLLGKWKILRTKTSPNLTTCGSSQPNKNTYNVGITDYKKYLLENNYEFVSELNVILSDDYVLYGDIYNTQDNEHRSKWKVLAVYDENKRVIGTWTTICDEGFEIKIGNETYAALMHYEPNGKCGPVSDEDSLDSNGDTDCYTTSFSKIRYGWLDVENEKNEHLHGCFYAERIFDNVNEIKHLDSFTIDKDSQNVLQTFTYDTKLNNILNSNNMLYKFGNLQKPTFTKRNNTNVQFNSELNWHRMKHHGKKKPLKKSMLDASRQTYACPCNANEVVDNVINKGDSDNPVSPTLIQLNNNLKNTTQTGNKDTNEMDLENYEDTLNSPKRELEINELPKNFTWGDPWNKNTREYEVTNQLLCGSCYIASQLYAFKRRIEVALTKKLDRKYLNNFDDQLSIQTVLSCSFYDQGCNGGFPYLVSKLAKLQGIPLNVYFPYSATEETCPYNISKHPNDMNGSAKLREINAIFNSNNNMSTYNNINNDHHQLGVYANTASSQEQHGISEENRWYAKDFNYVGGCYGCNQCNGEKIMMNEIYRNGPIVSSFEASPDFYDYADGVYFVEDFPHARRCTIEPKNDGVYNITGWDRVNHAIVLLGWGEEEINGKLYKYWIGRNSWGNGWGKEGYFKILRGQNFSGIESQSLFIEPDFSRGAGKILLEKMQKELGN
row,SMILES,% Inhibition @ 10 uM [%]
1,CCCCN(C)Cc1cccc(O)c1,-1.78
2,O=C(O)C1C2CCC(C2)C1C(=O)Nc1nc2ccc(Cl)cc2s1 (centres unmarked),-0.992
3,Cc1cc(C)cc(C(=O)Nc2ccncc2)c1,1.27
4,CCc1ccc(CN2CCN(c3ccc(F)cc3)CC2)cc1,-0.197
5,Cc1cc(-n2nc3ccccc3n2)c2oc(SCC(=O)N3CCCCC3)nc2c1,-4.73
6,C/C(=C\c1ccccc1)CN1CCc2c([nH]c3ccccc23)C1,1.88
7,COc1cc(C(=O)N2CCN(Cc3cccc(F)c3)CC2)cc(OC)c1OC,-0.69
8,CCC(C)c1ccc(NC(=O)CSc2nc3cccnc3[nH]2)cc1 (centres unmarked),1.52
9,CC(=O)c1ccc(N2CCN(C(C)Cc3cccc(C(F)(F)F)c3)CC2)cc1 (centres unmarked),-0.274
10,Cc1nc(N)sc1-c1csc(Nc2ccccc2)n1,10.1
11,O=C(NCc1ccc2c(c1)OCO2)c1ccc(F)cc1,0.35
12,Cc1nc2nc(N3C(=O)c4ccc(C(=O)O)cc4C3=O)nn2c(C)c1Cl,5.2
13,Fc1ccc(N2N=C(c3cccs3)CC2c2ccccc2)cc1 (centres unmarked),4.98
14,CCn1cc(CCC(=O)NCCC2=CCCCC2)c2ccccc21,-1.43
15,CC1=NC(C)=C(C#N)C(C(F)(F)F)(C(F)(F)F)N1,1.91
16,COC(=O)C1=C(C)N(C(C)C)C(=O)/C1=C\c1cc(C)n(-c2ccccc2)c1C,-1.26
17,Cc1nc(-n2cccc2)sc1C(=O)NCC(C)c1ccccc1 (centres unmarked),-0.637
18,N#CCNC(=O)[C@H](CC1CCCCC1)NC(=O)c1ccc(O)c([N+](=O)[O-])c1,2.86
19,O=c1c(CN2CCN(c3cccc(Cl)c3)CC2)coc2ccccc12,0.847
20,CC1CCC(NCCN2CCOCC2)C1 (centres unmarked),3.15
21,Cc1ccc(N2C(=O)CC(N3CCN(Cc4ccccc4)CC3)C2=O)c(Cl)c1 (centres unmarked),-4.15
22,CCOc1cccc(C(=O)Nc2nnc(-c3ccco3)s2)c1,-5.7
23,CC1=C(C(=O)Nc2ccccn2)C(c2sccc2C)C2=C(O)CCCC2=N1 (centres unmarked),-4.67
24,Cc1cc(-c2ccc(C)c(S(=O)(=O)N3CCN(c4ccccn4)CC3)c2)on1,0.879
25,N#C/C(=C\C=C\c1ccccc1)c1nc(-c2ccccc2)cs1,-7.56
26,Cc1ccccc1C(=O)NC(C)c1ccc2c(c1)OCO2 (centres unmarked),3.04
27,COc1ccc(CCNC(=O)CCn2cccn2)cc1OC,-1.74
28,Cc1nnc2ccc(N3CCC4(CC3)OCCO4)nn12,7.15
29,CC1=C(C(=O)OCc2ccccc2)C(c2cccc(Cl)c2Cl)C2=C(O)CC(C)(C)CC2=N1 (centres unmarked),0.162

# Reference: paper PMC6919601, “Identification of Plasmodium dipeptidyl aminopeptidase allosteric inhibitors by high throughput screening” (PLoS ONE, 2019)
